{
  "source": "PubChem BioAssay AID1476",
  "about": "(National Center for Advancing Translational Sciences (NCATS), 2009)",
  "note": "Hit rate of the full screen: of about 200,000 compounds, about 4,500 (2.2%) were called active. The shares of active, inactive and inconclusive entries below differ from those in the screen. Calls come from the whole dose curve; as a rule, active = well fitted inhibition curve with a large enough effect; inconclusive = small, poorly fitted or top-dose-only effect, or effect the other way; inactive = flat fitted curve, though single readings scatter. Potencies beside an inconclusive call are fits to weak or partial responses and may not hold up. Potency is the fitted concentration of half-maximal effect; tags give direction and shape of the fitted curve.",
  "data": [
    {"molecular_target": "Cruzipain (Trypanosoma cruzi) (UniProt P25779)", "sequence (P25779 whole entry, looked up)": "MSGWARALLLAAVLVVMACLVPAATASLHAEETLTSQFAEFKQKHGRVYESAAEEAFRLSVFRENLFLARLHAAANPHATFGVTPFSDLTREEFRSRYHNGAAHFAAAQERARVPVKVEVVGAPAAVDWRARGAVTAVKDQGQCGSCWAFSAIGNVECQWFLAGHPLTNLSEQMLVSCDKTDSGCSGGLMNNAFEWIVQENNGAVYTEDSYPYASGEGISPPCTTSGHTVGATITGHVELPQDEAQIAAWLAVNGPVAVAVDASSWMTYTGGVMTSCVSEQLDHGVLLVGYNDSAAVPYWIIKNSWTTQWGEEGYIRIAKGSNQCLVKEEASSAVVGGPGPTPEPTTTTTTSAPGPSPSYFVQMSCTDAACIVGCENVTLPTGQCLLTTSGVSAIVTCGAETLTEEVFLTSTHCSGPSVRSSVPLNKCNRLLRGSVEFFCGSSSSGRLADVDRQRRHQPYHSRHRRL", "assay": "qHTS Assay for Promiscuous and Specific Inhibitors of Cruzain (without detergent); note: nearly all actives have a fitted effect of over 40% in size;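 for max response, negative = inhibition: plate controls were enzyme without inhibitor for no effect and buffer without enzyme for full effect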", "settings": "purified cruzain, Z-FR-AMC fluorescence, no detergent", "method_in_brief": "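Purified cruzain at 1.5 nM, pre-incubated 15 min with compound at room temperature in 100 mM sodium acetate pH 5.5, 5 mM DTT, 0.00005% Triton X-100. Reaction started with 2 uM Z-FR-AMC; AMC fluorescence increase over 60 s gives rate.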", "values": [
      {"smiles": "Cc1c(Cl)cccc1-n1c(CCC(=O)O)ccc1-c1cccs1", "max response, negative = inhibition": "inactive: -7.02%"},
      {"smiles": "CC(=O)c1ccc(-c2c(C)cc3oc(=O)cc(-c4ccccc4)c3c2C)cc1", "Potency": "inconclusive: 50.1 µM [inhibitor, single point]"},
      {"smiles": "CN(C)CCN1C(=O)C(O)=C(C(=O)c2cc3ccccc3o2)C1c1cccc(Br)c1", "note": "(configuration not stated)", "Potency": "inconclusive: 39.8 µM [activator, single point]"},
      {"smiles": "Cc1csc2ncc(C(=O)Nc3cccc(C(F)(F)F)c3)c(=O)n12", "Potency": "inconclusive: 31.6 µM [activator, single point]"},
      {"smiles": "COc1ccc(CNc2nc(-c3ccccc3)nn2C(=O)c2ccc([N+](=O)[O-])cc2)cc1", "Potency": "inconclusive: 31.6 µM [inhibitor, single point]"},
      {"smiles": "CC1CCN(C(=O)CCNC(=O)Cn2cnc3sc4c(c3c2=O)CCCC4)CC1", "Potency": "inconclusive: 31.6 µM [activator, single point]"},
      {"smiles": "COc1ccc(NC(c2ccc(F)cc2)c2nnc(-c3ccccc3Cl)o2)cc1Cl", "note": "(configuration not stated)", "Potency": "inconclusive: 31.6 µM [inhibitor, single point]"},
      {"smiles": "CN(C)CCCO[C@H]1C([C@H](O)CO)O[C@@H]2OC(C)(C)O[C@@H]21", "note": "(some centres not stated)", "max response, negative = inhibition": "inactive: -3.67%"},
      {"smiles": "CCOC(=O)c1c(S(=O)(=O)N2CCCC(C(=O)N3CCN(c4ccc(F)cc4)CC3)C2)c(C)n(C)c1C", "note": "(configuration not stated)", "Potency": "inconclusive: 39.8 µM [activator, single point]"},
      {"smiles": "Cc1ccc(C)c(-c2csc(-c3c(N)c(C(=O)c4ccc5c(c4)OCO5)n4ccccc34)n2)c1", "Potency": "active: 3.16 µM"},
      {"smiles": "O=C(NCc1ccccc1)C(c1ccc(O)cc1)N(C(=O)Cn1nnc(-c2cccs2)n1)c1ccc2c(c1)OCCO2", "note": "(configuration not stated)", "Potency": "inconclusive: 25.1 µM [inhibitor, single point]"},
      {"smiles": "Cc1ccc(C)c(S(=O)(=O)c2cnc(SCC(=O)Nc3ccc(F)cc3F)[nH]c2=O)c1", "Potency": "inconclusive: 39.8 µM [activator, single point]"},
      {"smiles": "CCc1ccc(NC(=O)CSc2nccn2C2CCCC2)cc1", "max response, negative = inhibition": "inactive: 4.3%"},
      {"smiles": "Cn1cc(S(=O)(=O)N2CCCCC2)cc1C(=O)N1CCN(c2ccc(F)cc2)CC1", "Potency": "inconclusive: 39.8 µM [activator, single point]"},
      {"smiles": "Cc1cc2c(=O)c(C(=O)c3ccncc3)cn(CC(=O)Nc3cccc(C)c3C)c2cc1C", "max response, negative = inhibition": "inactive: 22.8%"},
      {"smiles": "CCCCCCCCC/C=C/CC1CC(=O)OC1=O", "note": "(configuration not stated)", "Potency": "inconclusive: 39.8 µM [activator, partial curve]"},
      {"smiles": "Cc1cc(C(=O)NCCN2C(=O)S/C(=C\\c3cccs3)C2=O)ccc1[N+](=O)[O-]", "Potency": "inconclusive: 39.8 µM [inhibitor, single point]"}
    ]}
  ]
}
